What was measured:
[1] = target: T1, IL-2Rα-Fc fusion protein (human, UniProt P01589 22-240); assay: BLI (Octet RED96), IL-2Rα-Fc on AHC biosensor, global fit
T1 construct: also called human IL-2Rα (CD25); CD25; not shown: Fc part and any linker are not described; captured on an anti-human IgG Fc sensor
T1 sequence: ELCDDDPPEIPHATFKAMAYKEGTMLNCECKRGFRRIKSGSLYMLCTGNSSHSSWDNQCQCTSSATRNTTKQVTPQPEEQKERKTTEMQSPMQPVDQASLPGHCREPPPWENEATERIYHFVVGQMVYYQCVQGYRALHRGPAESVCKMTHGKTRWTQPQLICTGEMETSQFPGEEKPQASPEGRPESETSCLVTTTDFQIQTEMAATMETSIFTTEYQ
Method: OCTET® RED96 was used to characterize the interactions of a wild-type hIL-2 and hIL-2 muteins with a human IL-2Rα (CD25). Briefly, an IL-2Rα-Fc fusion protein was loaded onto an anti-human IgG Fc capture (AHC) biosensor. The biosensor was then dipped into a solution containing a wild-type hIL-2 (WT IL-2) or an IL-2 mutein at various concentrations. Primary experimental data was analyzed with global fitting to determine a binding affinity (Kd).

[2] = target: T2, human CD122-Fc (AbroBio) (human, UniProt P14784 27-239); assay: BLI (Octet RED96), CD122-Fc on AHC sensor, 400 nM hIL-2 polypeptide
T2 construct: also called IL-2Rβ; not shown: Fc part and any linker of the bought protein are not described; captured on an anti-human Fc sensor
T2 sequence: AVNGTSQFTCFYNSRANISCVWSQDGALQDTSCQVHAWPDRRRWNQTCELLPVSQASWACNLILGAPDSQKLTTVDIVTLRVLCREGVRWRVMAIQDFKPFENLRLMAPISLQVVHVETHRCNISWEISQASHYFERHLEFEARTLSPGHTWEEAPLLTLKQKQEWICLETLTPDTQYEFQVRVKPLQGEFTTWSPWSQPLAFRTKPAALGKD
Method: OCTET® RED96 was used to characterize the interactions of a human CD122-Fc (AbroBio) with a wild-type hIL-2 and hIL-2 muteins. Briefly, an anti-human Fc sensor (AHC) loaded with the human CD122 was dip into 400 nM of an hIL-2 polypeptide. The binding signaling of fusion protein A1 was normalized to 1.

B1: hIL-2-anti-HSA A1 (ligand)
chain: [letters of about 150 residues not shown]GSGGSGGSGGSGEVQLVESGGGLVQPGGSLRLSCAASGSTWSINTLAWYRQAPGKQRDLVARISSGGSTYYADSVKGRFTISRDNSKNTLYLQMNSLRAEDTAVYYCYAQSTWYPPSWGQGTLVTVSS
notes: C-terminus fused by a peptide linker to an anti-HSA VHH; made in ExpiCHO cells; also called fusion protein A1; hIL-2 mutein (C125S)
Q: Which results are given for B1?
A: Kd [1]: 0.021 µM; CD122 Binding Response (A1 normalized to 1) [2]: 1

— patent US20210340208A1 (ANWITA BIOSCIENCES, published 2021)
